In PubChem BioAssay AID463173 (ICCB-Longwood Screening Facility, Harvard Medical School, 2010):
Out of some 52,000 compounds screened, about 1,700 (3.3%) were called active. No stated cut-off is given here; in the data, active means survival mostly below about 52% (no sharp cut-off); inactive means mostly above about 56%. The list shows a part of the results.

System: Wild type
Experiment: S. aureus survival, RN4220 and DeltatarO strains – OD600, teichoic acid synthesis inhibitors, primary screen (AID 463173)
Details: S. aureus RN4220 wild type/DeltatarO growth, OD600, 18 h, hits give low values, screened at 18.75 µg/mL (by protocol)

How did the survival turn out when `CC1OCC(OC(=O)c2ccccc2)CO1` (stereo not given) was run?
The survival was inactive: 100%.

With `Cc1ccc2c(c1)C1OCCC1C(c1ccncc1)N2` (stereo not given) as the compound, how does the survival read?
The survival was inactive: 113%.

For `CCOc1ccc(OCC)c(NC(=O)C2CCN(c3cnccn3)CC2)c1`, which survival is on record?
The survival was inactive: 101%.

How did the survival turn out when `O=C1C2C(C(=O)N1CC1CCCO1)C1C=CC2C12CC2` (stereo not given) was run?
The survival was inactive: 105%.

With `O=C(CNS(=O)(=O)c1ccccc1)NCc1ccccn1` as the compound, how does the survival read?
Its survival is inactive: 113%.

For `O=C(c1ccc(F)cc1F)N1CCC(c2noc(-c3ccc(S(=O)(=O)N4CCCC4)cc3)n2)CC1`, which survival is on record?
Its survival is inactive: 89%.

`O=C(Nc1nnc(S(=O)(=O)N2CCOCC2)s1)c1ccc(F)cc1` was tested. Which survival did it give?
Its survival is inactive: 80%.

`N#Cc1cccc(NC(=O)c2ccc3c(c2)N(Cc2cccc(Cl)c2)C(=O)c2ccccc2S3(=O)=O)c1` was tested. Which survival did it give?
Its survival is inactive: 98%.

With `O=C(O)c1cc2ccccc2[nH]c1=O` as the compound, how does the survival read?
The survival was inactive: 100%.

Which survival does the source give for `CCc1ccc(NC(=O)CN(Cc2ccccc2)S(=O)(=O)c2ccc3nc(C)sc3c2)cc1` here?
The survival was inactive: 73%.

How did the survival turn out when `Cc1ccccc1-c1noc(-c2ccccc2OCC(=O)Nc2ccccc2[N+](=O)[O-])n1` was run?
Its survival is inactive: 85%.

`CCc1ccc(S(=O)(=O)c2nnn3c2nc(NCc2ccccc2OC)c2cc(Cl)ccc23)cc1` was tested. Which survival did it give?
Its survival is inactive: 99%.

For `Cc1ccc2c(c1)c(C)cc(=O)n2CCC(=O)O`, which survival is on record?
Its survival is inactive: 106%.

With `COc1ccc(C2NC(=O)N(C)C3=C2C(=O)N(c2ccc(C)cc2)C3)cc1` (stereo not given) as the compound, how does the survival read?
The survival was inactive: 82%.

How did the survival turn out when `Cc1ccccc1CSc1nc2cccnc2n1Cc1ccc(C(=O)NCCc2cccs2)cc1` was run?
The survival was inactive: 60%.

With `Cc1ccc2oc(=O)n(CCNC(=O)Nc3ccc(C)c(F)c3)c2c1` as the compound, how does the survival read?
The survival was inactive: 108%.

For `COc1ccccc1C1C=C(c2ccc(Cl)cc2)Nc2nc(-c3ccc(Cl)cc3)nn21` (stereo not given), which survival is on record?
Its survival is inactive: 79%.

Which survival does the source give for `Cc1ccc(C)c(N2CCN(C(=O)C(C)n3c(C)c4cnn(-c5ccccc5)c(=O)c4c3C)CC2)c1` (stereo not given) here?
Its survival is inactive: 76%.

For `COc1ccc(Cl)cc1N(C)C(=O)C(=O)Nc1ccc2nc3n(c(=O)c2c1)CCCCC3`, which survival is on record?
The survival was inactive: 63%.

`Cc1ccc(N2CCN(C(=O)c3noc4c3COc3ccc(C)cc3-4)CC2)c(C)c1` was tested. Which survival did it give?
Its survival is inactive: 89%.

Which survival does the source give for `Cc1ccc(CN(C(=O)COc2ccc(Br)cc2)c2ccccn2)o1` here?
The survival was inactive: 80%.

`COc1ccc(NC(=O)CSc2nc(-c3ccccc3)nc3c2Cc2c(CO)cnc(C)c2O3)cc1Cl` was tested. Which survival did it give?
The survival was inactive: 85%.

With `CCCCCn1c(=N)n(CC(O)COc2cccc(C)c2)c2ccccc21` (stereo not given) as the compound, how does the survival read?
Its survival is inactive: 34%.

How did the survival turn out when `Cc1ccc(CNC(=O)c2c(-c3cccc(Br)c3)noc2C)o1` was run?
Its survival is inactive: 112%.

With `CC(Nc1ccc(-c2nc(-c3ccccn3)no2)cc1[N+](=O)[O-])c1ccccc1` (stereo not given) as the compound, how does the survival read?
Its survival is inactive: 50%.
